Experimental data: PubChem BioAssay AID651820 (National Center for Advancing Translational Sciences (NCATS), 2012)
Screen size: about 340,000 compounds; about 12,000 (3.5%) were called active. The shares of active, inactive and inconclusive entries below differ from those in the screen. Calls follow the shape of the dose curve; as a rule, active = well fitted inhibition curve with a large enough effect; inconclusive = small, poorly fitted or top-dose-only effect, or another doubt; inactive = no such curve, though single readings can be large or run the other way. No potency is given beside an inconclusive call; the fits are too rough.

Assay: qHTS Assay for Inhibitors of Hepatitis C Virus (HCV)
Conditions: Huh7.5.1 HCVcc-Cre (HCVcc is cell-culture hepatitis C virus) infection, luciferase reporter, 44 h; activity change, negative = inhibition: at 41.8 µM (top of the series) unless noted
Summary of the method: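 Reporter virus HCVcc-Cre (~0.5 moi) infects cells exposed to compound; seeding density 1,000 cells/well with 4 h settling beforehand. Luminescence, 15 sec read, taken 44 h post-infection following a 15 min RT substrate incubation.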
% is scaled to controls: 0 for no effect and ±100 for the full control effect; potency is read from the fitted curve at half-maximal effect; tags tell the direction and shape of the fitted curve.

Q: For `O=C(NC1CCCC1)c1ccc(Cl)c(S(=O)(=O)N2CCCCC2)c1`, which Potency is on record?
A: Its Potency is active: 35.5 µM.

Q: Which Potency does the source give for `Cc1cc(C)cc(NC(=O)COc2coc(CN3CCN(c4ccccc4)CC3)cc2=O)c1` here?
A: The Potency was inconclusive [inhibitor, single point].

Q: With `O=C(Nc1ccc2c(c1)CCC2)c1cccc(OC(F)F)c1` as the compound, how does the Potency read?
A: The Potency was inconclusive [inhibitor, single point].

Q: For `CCOC(=O)C(O)(c1ccc(NC(=O)NC2CCCCC2)cc1)C(F)(F)F` (configuration not stated), which activity change, negative = inhibition is on record?
A: The activity change, negative = inhibition was inconclusive: -33.8% [inhibitor].

Q: For `Cc1cc(Nc2nnnn2-c2ccccc2)n(-c2ccc(Cl)cc2)n1`, which Potency is on record?
A: The Potency was inconclusive [inhibitor, full curve].

Q: With `Oc1cccc(C=NN=C2c3ccccc3-c3ccccc32)c1` as the compound, how does the Potency read?
A: Its Potency is inconclusive [inhibitor, single point].

Q: For `CCOc1ccc(NC(=O)CN(C)C(=O)c2cccnc2Sc2ccccc2Cl)cc1OCC`, which Potency is on record?
A: The Potency was inconclusive [inhibitor, full curve].

Q: Which Potency does the source give for `COc1ccc(N2CCN(C(=O)CN(Cc3ccc(Cl)cc3)S(C)(=O)=O)CC2)cc1` here?
A: Its Potency is inconclusive [inhibitor, single point].

Q: Which Potency does the source give for `CCNC(=S)N1CCN(c2nc(-c3ccc(F)cc3)cs2)CC1` here?
A: Its Potency is inconclusive [inhibitor, single point].

Q: Which Potency does the source give for `CC(=O)c1cccc(NC(=O)CSc2ccc(-c3ccc4c(c3)OCO4)nn2)c1` here?
A: Its Potency is active: 11.2 µM.

Q: For `CCCCNc1nc2c(c(=O)n(C)c(=O)n2C)n1Cc1cccc(OC)c1`, which Potency is on record?
A: The Potency was active: 6.31 µM.

Q: Which Potency does the source give for `O=C(Nc1ccccc1)c1cccc(N2C(=O)C3C4C=CC(C5CC45)C3C2=O)c1` (configuration not stated) here?
A: The Potency was inconclusive [inhibitor, partial curve].

Q: For `O=C(COc1coc(CN2CCN(c3ccccc3F)CC2)cc1=O)Nc1ccccc1`, which Potency is on record?
A: The Potency was inconclusive [inhibitor, single point].

Q: For `Cc1ccc(C2(C)CC(C)(C)N(C(=O)CSc3nnc(C)s3)c3ccccc32)cc1` (configuration not stated), which Potency is on record?
A: Its Potency is inconclusive [inhibitor, single point].

Q: With `CCN(CC)S(=O)(=O)c1ccc(NC(=O)c2ccc(Cl)nc2)cc1` as the compound, how does the Potency read?
A: The Potency was “inactive”.

Q: Which Potency does the source give for `C=CC(C)(C)c1c(O)c(CC=C(C)C)c(O)c2c(=O)c3ccc(O)c(O)c3oc12` here?
A: The Potency was active: 11.2 µM.

Q: For `Cc1ccccc1Nc1nc(N)nc(CSc2nc3ccccc3s2)n1`, which Potency is on record?
A: Its Potency is inconclusive [inhibitor, single point].

Q: With `CCN(CC)C(=O)c1ccc(NC(=O)c2ccc(N3CCCC3=O)cc2)cc1` as the compound, how does the Potency read?
A: The Potency was “inactive”.

Q: For `CC12CCC(C(=NO)C1=O)C2(C)C` (configuration not stated), which Potency is on record?
A: Its Potency is “inactive”.

Q: Which activity change, negative = inhibition does the source give for `OC(CNCc1ccccc1F)(c1ccc(F)cc1)c1ccc(F)cc1` here?
A: The activity change, negative = inhibition was inconclusive: -31.5% [inhibitor].

Q: For `CC(C)(C)n1nnnc1C(c1ccc(Cl)cc1)N(Cc1cccnc1)Cc1ccco1` (configuration not stated), which Potency is on record?
A: The Potency was inconclusive [inhibitor, single point].

Q: With `COc1ccccc1-c1cc(C(=O)N/N=C/c2cccs2)c2ccccc2n1` as the compound, how does the Potency read?
A: The Potency was inconclusive [inhibitor, partial curve].

Q: Which Potency does the source give for `CCc1nnc(NC(=O)c2ccc(S(=O)(=O)NC3CCCCC3)cc2)s1` here?
A: Its Potency is inconclusive [inhibitor, single point].

Q: With `CCOC(=O)C1(Cc2ccc(OC)cc2)CCN(C(=O)CCN2CCCC2=O)CC1` as the compound, how does the Potency read?
A: Its Potency is “inactive”.

Q: With `CNc1nc(-c2ccccc2)cc(C)c1S(C)(=O)=O` as the compound, how does the Potency read?
A: The Potency was inconclusive [inhibitor, full curve, poor fit].

Q: Which Potency does the source give for `O=[N+]([O-])c1nn(-c2ccc3c(c2)OCCO3)n(O)c1=NC1CCCCC1` here?
A: The Potency was inconclusive [inhibitor, single point].

Q: Which Potency does the source give for `O=C(CSc1nc2ccccc2c(=O)n1-c1ccc(F)cc1)Nc1ccc2c(c1)CCC2` here?
A: Its Potency is inconclusive [inhibitor, full curve, poor fit].

Q: Which Potency does the source give for `COc1ccc(N(C)S(=O)(=O)c2cccc(C(=O)OCC(=O)N3CC(C)CC(C)C3)c2)cc1` (configuration not stated) here?
A: The Potency was inconclusive [inhibitor, single point].

Q: With `O=C(Nc1ccc2c(c1)CCCN2C(=O)c1ccccc1)c1ccccc1` as the compound, how does the Potency read?
A: Its Potency is inconclusive [inhibitor, partial curve].

Q: With `COc1ccc(OC)c2sc(NNC(=O)C3COc4ccccc4O3)nc12` (configuration not stated) as the compound, how does the Potency read?
A: Its Potency is inconclusive [inhibitor, single point].

Q: With `CNC(=O)c1ccsc1NC(=O)c1ccccc1` as the compound, how does the Potency read?
A: Its Potency is inconclusive [inhibitor, partial curve].

Q: Which Potency does the source give for `COc1cc(/C=N/NC(=O)c2sc(N)c(C#N)c2C)cc(Br)c1O` here?
A: The Potency was inconclusive [inhibitor, partial curve].

Q: For `CCOC(=O)C1=C(c2ccccc2)NC(SCC(=O)Nc2cccc(C)c2)=C(C#N)C1c1ccco1` (configuration not stated), which Potency is on record?
A: Its Potency is inconclusive [inhibitor, single point].

Q: With `Cc1ccc(/C=N/Nc2cc(C)nc(NCc3ccccc3)n2)cc1` as the compound, how does the Potency read?
A: The Potency was active: 7.08 µM.

Q: Which Potency does the source give for `COc1ccc([N+](=O)[O-])cc1NC(=O)CSc1ncccn1` here?
A: The Potency was inconclusive [inhibitor, single point].

Q: Which Potency does the source give for `CC(C)CCn1cnc2c([nH]c3cccc(Cl)c32)c1=O` here?
A: Its Potency is inconclusive [inhibitor, single point].

Q: For `COc1ccc(C2=NOC(Cn3nc(-c4ccccc4)cc3C(=O)NCc3cccc(C(F)(F)F)c3)C2)cc1` (configuration not stated), which Potency is on record?
A: The Potency was inconclusive [inhibitor, single point].

Q: For `CCCCc1c(C)nc2ccccc2c1SCCC#N`, which Potency is on record?
A: The Potency was inconclusive [inhibitor, partial curve].

Q: For `CC(=O)Nc1ccc(S(=O)(=O)Nc2ccc3nc(C)sc3c2)cc1`, which Potency is on record?
A: Its Potency is inconclusive [inhibitor, partial curve].

Q: Which Potency does the source give for `Cc1ccc(-n2nc(C)c3c(C(=O)OCC(=O)N(C)C4CCS(=O)(=O)C4)cc(-c4ccccc4)nc32)cc1` (configuration not stated) here?
A: The Potency was inconclusive [inhibitor, partial curve, poor fit].

Q: Which Potency does the source give for `COc1ccc2[nH]c(C)c(CCNC(=S)Nc3cc(C)ccc3C)c2c1` here?
A: Its Potency is inconclusive [inhibitor, partial curve].

Q: For `O=C(Nc1ncc([N+](=O)[O-])s1)c1ccccc1Br`, which Potency is on record?
A: Its Potency is “inactive”.

Q: With `CCOC(=O)C1=C(C)NC(SC)=C(C#N)C1CC(C)C` (configuration not stated) as the compound, how does the Potency read?
A: Its Potency is inconclusive [inhibitor, full curve].

Q: With `CCN1CCCC1CNC(=O)c1cc2c(-c3cccc(OC)c3)nn(C)c2s1` (configuration not stated) as the compound, how does the Potency read?
A: The Potency was inconclusive [inhibitor, partial curve].

Q: For `COP(=O)(OC)C(Nc1ccc(C)cc1)c1ccc([N+](=O)[O-])cc1` (configuration not stated), which Potency is on record?
A: The Potency was “inactive”.

Q: For `C=CCOc1cccc(/C=N/NC(=O)CN(c2cc(Cl)ccc2OC)S(=O)(=O)c2ccc(C)c([N+](=O)[O-])c2)c1`, which Potency is on record?
A: The Potency was inconclusive [inhibitor, single point].

Q: With `OC1(c2ccc(Cl)cc2)CCN(Cc2cn[nH]c2-c2ccccc2)CC1` as the compound, how does the Potency read?
A: Its Potency is inconclusive [inhibitor, single point].

Q: Which Potency does the source give for `CS(=O)(=O)c1ccc(N)c(SSc2cc(S(C)(=O)=O)ccc2N)c1` here?
A: Its Potency is “inactive”.

Q: With `NS(=O)(=O)c1ccc(NCc2cc(Cl)ccc2OCc2ccc(F)cc2)cc1` as the compound, how does the Potency read?
A: Its Potency is inconclusive [inhibitor, single point].

Q: With `COc1ccc(OC)c(C(=O)COC(=O)c2ccccc2O)c1` as the compound, how does the Potency read?
A: Its Potency is inconclusive [inhibitor, single point].

Q: Which Potency does the source give for `COC(=O)c1c(NC(=O)c2nc3nc(C)cc(C(F)F)n3n2)sc2c1CCC2` here?
A: Its Potency is active: 10 µM.

Q: With `O=C(Nc1ccc(N2CCOCC2)cc1)c1ccc(-c2ccccc2[N+](=O)[O-])o1` as the compound, how does the Potency read?
A: The Potency was active: 11.2 µM.

Q: For `O=c1oc2ccccc2c(N2CCCCC2)c1CN1CCCC1`, which Potency is on record?
A: Its Potency is inconclusive [inhibitor, single point].

Q: With `O=C(Nc1ccc2nc3n(c(=O)c2c1)CCCCC3)c1cc([N+](=O)[O-])ccc1F` as the compound, how does the Potency read?
A: Its Potency is inconclusive [inhibitor, single point].

Q: Which Potency does the source give for `CCOc1ccc(S(=O)(=O)/N=C(/Nc2ccc(C(C)=O)cc2)c2ccccc2)cc1` here?
A: Its Potency is inconclusive [inhibitor, partial curve].

Q: For `Cc1ccc(NC(=O)c2nc[nH]c2C(=O)NCCCCCNC(=O)OC(C)(C)C)cc1`, which Potency is on record?
A: The Potency was inconclusive [inhibitor, single point].

Q: For `O=C1NC2(CCCCCC2)Oc2ccccc21`, which Potency is on record?
A: Its Potency is “inactive”.

Q: Which Potency does the source give for `O=C(Nc1ccccc1)C1CCCCN1S(=O)(=O)c1ccccc1` (configuration not stated) here?
A: The Potency was “inactive”.

Q: For `Cc1nn(-c2ccccc2)c(C)c1NC(=O)COC(=O)c1cc([N+](=O)[O-])ccc1NCCO`, which Potency is on record?
A: The Potency was active: 22.4 µM.

Q: Which Potency does the source give for `CCN(CC(=O)Nc1c(F)cccc1F)C(=O)Cc1ccc(S(=O)(=O)N2CCOCC2)s1` here?
A: Its Potency is “inactive”.

Q: For `CCc1ccc2oc(=O)cc(CN3CCN(Cc4ccccc4)CC3)c2c1`, which Potency is on record?
A: The Potency was inconclusive [inhibitor, partial curve].

Q: Which Potency does the source give for `O=C1NC(=O)/C(=C\c2ccccc2Oc2ccc(F)c(F)c2)S1` here?
A: Its Potency is inconclusive [inhibitor, single point].

Q: With `Cc1cccc(OCCCOc2cccc3cccnc23)c1C` as the compound, how does the Potency read?
A: The Potency was inconclusive [inhibitor, single point].

Q: For `CCN(CC(=O)Nc1c(F)cccc1F)C(=O)c1ccc(COc2ccccc2)cc1`, which Potency is on record?
A: Its Potency is “inactive”.

Q: With `O=C(c1ccc(S(=O)(=O)N2CCCCC2)cc1)N1CCN(Cc2ccc3c(c2)OCO3)CC1` as the compound, how does the Potency read?
A: Its Potency is inconclusive [inhibitor, single point].

Q: With `COc1ccc(S(=O)(=O)Nc2ccc(F)c(F)c2)cc1Cl` as the compound, how does the Potency read?
A: The Potency was “inactive”.

Q: With `CCc1ccc(CCC(=O)Nc2nc(CC(C)=O)ns2)o1` as the compound, how does the Potency read?
A: Its Potency is inconclusive [inhibitor, single point].
